Assay results as given in paper PMC2661964, “Mammalian Kinesin-3 Motors Are Dimeric In Vivo and Move by Processive Motility upon Release of Autoinhibition” (PLoS Biology, 2009).
No constants are given. Whether binding was seen depends on the method and setting. For part of these data: Binding seen in cells or lysates may run through a third protein.

How the values were obtained:
KIF1A(1–369)-mCit (rat) = KIF1A(1–369)-mCit (rat) (UniProt F1M4A4); experiment: cross-linking; lysates of transfected COS cells in borate buffer (50 mM NaBorate, 100 mM potassium acetate, 2 mM MgCl2, 1 mM EGTA, 1% Triton X-100, pH 8.57), 20 mM DMP for 30 min or untreated; SDS-PAGE, immunoblot
[1] = target: KIF1A(1–381)-3xmCit (rat) (UniProt F1M4A4); experiment: stepwise photobleaching of single molecules (TIRF microscopy); lysates of COS cells expressing 3xmCit-tagged constructs, in flow chambers with Cy5-microtubules, with AMPPNP; number of bleaching steps of 160–200 spots for each construct
[2] = target: KIF1A(1–369)-3xmCit (rat) (UniProt F1M4A4); experiment: as above

B1: KIF1A(1–369)-mCit (domain or fragment, UniProt F1M4A4 1-369)
chain: MAGASVKVAVRVRPFNSREMSRDSKCIIQMSGSTTTIVNPKQPKETPKSFSFDYSYWSHTSPEDINYASQKQVYRDIGEEMLQHAFEGYNVCIFAYGQTGAGKSYTMMGKQEKDQQGIIPQLCEDLFSRINDTTNDNMSYSVEVSYMEIYCERVRDLLNPKNKGNLRVREHPLLGPYVEDLSKLAVTSYNDIQDLMDSGNKARTVAATNMNETSSRSHAVFNIIFTQKRHDAETNITTEKVSKISLVDLAGSERADSTGAKGTRLKEGANINKSLTTLGKVISALAEMDSGPNKNKKKKKTDFIPYRDSVLTWLLRENLGGNSRTAMVAALSPADINYDETLSTLRYADRAKQIRCNAIINEDPNNKLI
B1 was tested, and the binding (KIF1A(1–369)-mCit (rat)) was “no binding”.

B2: KIF1A(1–381)-3xmCit (domain or fragment, UniProt F1M4A4 1-381)
chain: MAGASVKVAVRVRPFNSREMSRDSKCIIQMSGSTTTIVNPKQPKETPKSFSFDYSYWSHTSPEDINYASQKQVYRDIGEEMLQHAFEGYNVCIFAYGQTGAGKSYTMMGKQEKDQQGIIPQLCEDLFSRINDTTNDNMSYSVEVSYMEIYCERVRDLLNPKNKGNLRVREHPLLGPYVEDLSKLAVTSYNDIQDLMDSGNKARTVAATNMNETSSRSHAVFNIIFTQKRHDAETNITTEKVSKISLVDLAGSERADSTGAKGTRLKEGANINKSLTTLGKVISALAEMDSGPNKNKKKKKTDFIPYRDSVLTWLLRENLGGNSRTAMVAALSPADINYDETLSTLRYADRAKQIRCNAIINEDPNNKLIRELKDEVTRLRD
B2 was tested, and the binding [1] was “no binding”.

B3: KIF1A(1–369)-3xmCit (domain or fragment, UniProt F1M4A4 1-369)
chain: MAGASVKVAVRVRPFNSREMSRDSKCIIQMSGSTTTIVNPKQPKETPKSFSFDYSYWSHTSPEDINYASQKQVYRDIGEEMLQHAFEGYNVCIFAYGQTGAGKSYTMMGKQEKDQQGIIPQLCEDLFSRINDTTNDNMSYSVEVSYMEIYCERVRDLLNPKNKGNLRVREHPLLGPYVEDLSKLAVTSYNDIQDLMDSGNKARTVAATNMNETSSRSHAVFNIIFTQKRHDAETNITTEKVSKISLVDLAGSERADSTGAKGTRLKEGANINKSLTTLGKVISALAEMDSGPNKNKKKKKTDFIPYRDSVLTWLLRENLGGNSRTAMVAALSPADINYDETLSTLRYADRAKQIRCNAIINEDPNNKLI
In the case of B3, the binding [2] is reported as “no binding”.
